About 540 (0.36%) of roughly 150,000 compounds showed an effect of 50% or more. Some of the results follow.

One may read the % Inhibition as the drop in the measured response relative to a control, in per cent.

In the test the test system is Plasmodium falciparum. Description: Primary screen in NF54 nanoGlo assay, in single point, at 2uM, 72h; a lower Z score goes with more inhibition. In kind it is functional, Erythrocyte. Conditions: timepoint 72 hour.
For `Cc1cccc(CC(=O)N2CC(N3C(=O)COC3=O)C2)c1`, the “% Inhibition” value is -8% and the Z score is recorded as 0.9.
As to `COc1ccccc1CC(C)(C)C(=O)N1CC(n2nc(C)nc2C)C1`, the “% Inhibition” value is given as -2% and the Z score is 0.38.
With `CN(Cc1cc[nH]n1)S(=O)(=O)CCC1CCC1`, the “% Inhibition” value is given as -8% and the Z score came to 1.16.
For `Cc1cc(NCc2cnnn2C)ncc1Br`, the “% Inhibition” value is listed as -13% and the Z score is listed as 1.67.
For `OC1=Nc2cccc3c2c(cn3Cc2cccc(F)c2)[C@@H](c2ccccc2OCCc2ccc3c(c2)CCO3)C1`, in that order: -4% and 0.49.
For `COc1ccc(-c2cc(C(=O)N3CCN(c4ccc(OC)cc4)CC3)c(C)n2-c2cccc(OC)c2)cc1`, in that order: -9% and 1.3.
Regarding `O=C(Cc1cccnc1)N1C[C@H]2CC[C@@H](C1)N(CC1CCC1)C2=O`, the “% Inhibition” value is recorded as -11% and the Z score was 1.91.
On to `Cc1cccc(-c2nc(CN(C)C(C3CC3)C3CC3)c(C)o2)c1`, for which the “% Inhibition” value came out at 4% and the Z score is recorded as -0.56.
In the case of `CCCN1C(=O)c2ccccc2C(C(=O)NC2CCCc3ccccc32)C1c1cc(OC)c(OC)c(OC)c1` (configuration not stated), the “% Inhibition” value worked out at 14% and the Z score was -2.3.
Take `COCCCn1c(C)cc(C(=O)N2C[C@@H](C(N)=O)[C@H](c3nc(C)no3)C2)c1C`: the “% Inhibition” value is recorded as -9% and the Z score was 1.37.
Turning to `CCn1ncc(-c2nc3c(cnn3C)[nH]2)c1C`, the “% Inhibition” value was -1% and the Z score was 0.12.
With `Cc1cnn(CC(=O)N2CCCN(S(=O)(=O)N3CCCCC3)CC2)c1`, the “% Inhibition” value is -4% and the Z score is listed as 0.82.
On to `O=C([C@@H]1Cn2cccc2C(=O)N1Cc1cccnc1)N1CCN(c2ccccn2)CC1`, for which the “% Inhibition” value is on record as -1% and the Z score amounted to 0.22.
As for `CC(=O)Nc1cc(Br)ccc1Cl`, the “% Inhibition” value is given as -3% and the Z score stood at 0.34.
Consider `O=C(Cc1csc(-c2ccccc2)n1)N1CCCC1`, for which the “% Inhibition” value is given as -2% and the Z score is reported as 0.36.
As to `CC(C)(C)c1noc(CNC(=O)CCCn2cnnn2)n1`, the “% Inhibition” value is recorded as -3% and the Z score came to 0.34.
In the case of `CCOc1ccc(C(=O)N[C@H]2C[C@@H](c3cc(N4CCOCC4)ncn3)C2)o1`, the “% Inhibition” value is -5% and the Z score amounted to 1.02.
`CCc1nnc(NC(=O)NCc2ncc(C(C)(C)C)o2)s1`: the “% Inhibition” value is listed as 0% and the Z score is 0.04.
Take `Brc1ccc(-c2nnc(Cn3nnnc3-c3ccncc3)o2)cc1`: the “% Inhibition” value is reported as 5% and the Z score was -0.59.
On to `O=C(CN1CCCCCC1)NC1CCN(C(=O)N2CCCCC2)CC1`, for which the “% Inhibition” value is listed as -12% and the Z score is reported as 2.62.
Turning to `CC(C)Oc1cccc(-c2cccc3cnccc23)c1`, the “% Inhibition” value was determined as 12% and the Z score was -1.69.
`CC(C)(C)c1ncc(CN[C@@H]2C=C[C@H](CO)C2)s1`: the “% Inhibition” value came out at 0% and the Z score was 0.02.
For the molecule `CN(C(=O)Cn1c(=O)n(C)c(=O)c2ccccc21)C1CCCCC1`, the “% Inhibition” value was -1% and the Z score came to 0.19.
Turning to `OCc1nnsc1N1CCOCC1`, the “% Inhibition” value was -26% and the Z score is recorded as 3.05.
For the molecule `CN1CCN(C(=O)c2ccc(F)cc2F)c2ccccc2C1`, the “% Inhibition” value was -12% and the Z score is on record as 1.62.
For `CS(=O)(=O)Cc1nc([C@H]2CCOC2)nn1C1Cc2ccccc2C1`, in that order: -3% and 0.49.
For `O=C(CCn1cnc2cc(-c3noc(Cc4ccc(Cl)cc4)n3)ccc21)N1CCCC1`, in that order: -18% and 2.35.
On to `CC(=O)Nc1ccc(C)cc1-c1nc2ccccc2n(CC(=O)Nc2cc(C)cc(C)c2)c1=O`, for which the “% Inhibition” value is given as -5% and the Z score came out at 1.02.
Regarding `Cc1ccc(CN(Cc2ccccc2)C(=O)CN(CC(C)C)C(=O)Nc2ccc(C(C)C)cc2)o1`, the “% Inhibition” value was -9% and the Z score is 1.19.
On to `O=C(c1[nH]nc2c1CCCC2)n1ccnc1`, for which the “% Inhibition” value is -5% and the Z score is on record as 0.6.
For `CC(=O)c1ccc(S(=O)(=O)N2CCN(Cc3cocn3)CC2)cc1`, in that order: -1% and 0.12.
For `O=c1[nH]ccn2nc(-c3ccc(F)cc3)cc12`, in that order: -8% and 1.58.
`CN(Cc1ncnn1-c1ccc2c(c1)CCC2)[C@H]1CCS(=O)(=O)C1`: the “% Inhibition” value is -2% and the Z score is on record as 0.32.
Take `O=C(NCC1(C2(O)CCC2)CC1)c1ncc2n1CCCC2`: the “% Inhibition” value amounted to 4% and the Z score is reported as -0.46.
Turning to `Cc1noc(C)c1CN(C)C(=O)c1ccc(-c2ncnn2C(C)C)cc1`, the “% Inhibition” value is listed as -12% and the Z score was 1.28.
Consider `CCc1nc(CC)n(Cc2nnc(-c3ccc(Cl)cc3)o2)n1`, for which the “% Inhibition” value was -9% and the Z score came to 1.25.
As for `C[C@H]1CC[C@@](C)(CNS(=O)(=O)C2CC2)C1(C)C`, the “% Inhibition” value is recorded as -12% and the Z score is 1.66.
For the molecule `CCn1cnnc1CNC(=O)N(Cc1cccc(O)c1)CC1CC1`, the “% Inhibition” value was -9% and the Z score amounted to 1.03.
For `O=C1CCC2(CCN(CCCc3ccccc3)CC2)CN1CCc1cccnc1`, in that order: 16% and -2.01.
For `CCc1ncc2c(n1)CN(C(=O)c1cnc3ccccn13)C2`, in that order: -16% and 2.26.
Turning to `CCOc1ccccc1C(=O)N1C[C@H](C(=O)NC)C2(CCCC2)C1`, the “% Inhibition” value was -12% and the Z score was determined as 1.49.
For `O=C(NCC1(COc2ccccc2)CC1)N1CCN(CCO)CC1`, in that order: -5% and 0.78.
Consider `CC1CC(NCC(O)c2cccs2)CC(C)O1` (configuration not stated), for which the “% Inhibition” value is -13% and the Z score stood at 1.81.
Regarding `COc1cccc(-c2nc(N3CCCCCC3)c3ccccc3n2)c1O`, the “% Inhibition” value is -14% and the Z score worked out at 1.84.
As to `CCc1cnc(CNC(=O)Nc2c(C)nsc2C)o1`, the “% Inhibition” value is given as -5% and the Z score came to 0.46.
For `CC(C)(C)CS(=O)(=O)N1CCC(O)(C(F)(F)F)CC1`, the “% Inhibition” value worked out at 16% and the Z score is -2.02.
On to `Cc1ccc(C(=O)N2CCC(c3nnc(Cn4ccnc4C)n3C)CC2)cc1`, for which the “% Inhibition” value is reported as 6% and the Z score is listed as -1.08.
Turning to `O=C1CCCN1CCc1nc(-c2ccc3c(c2)OCCO3)cs1`, the “% Inhibition” value is on record as -6% and the Z score came to 0.5.
Turning to `Cc1cc(N2CCC[C@@]3(CCC(=O)N(CCc4ccccc4)C3)C2)ncn1`, the “% Inhibition” value is given as 7% and the Z score is given as -0.9.
For `CCC(CC)(CNC(=O)[C@@H]1CCO[C@H]1c1ccnn1C)OC`, in that order: -1% and 0.18.
As for `CC(C)CN1CC[C@H](CNC(=O)N2CC(Cc3ccccc3)C2)C1`, the “% Inhibition” value was -3% and the Z score stood at 0.49.
For the molecule `Cc1nc(-c2ccc(C)c(S(=O)(=O)NC3CCCC3)c2)cs1`, the “% Inhibition” value came to 3% and the Z score was -0.34.
In the case of `CCCN(C(=O)c1cccs1)C1CCN(Cc2ccc3cn[nH]c3c2)CC1`, the “% Inhibition” value is -2% and the Z score is reported as 0.42.
Turning to `CCc1ocnc1C(=O)N1CCC[C@@H]1CF`, the “% Inhibition” value is -7% and the Z score is given as 0.85.
For `CC(C)(O)CN1CCN(C(=O)c2ccc3c(c2)OCCCO3)CC1`, the “% Inhibition” value was determined as 1% and the Z score is on record as -0.14.
For `OC[C@H]1CN(Cc2ccc(F)c(F)c2F)C[C@H]1CN1CCCCC1`, the “% Inhibition” value amounted to 0% and the Z score is on record as 0.04.
For `COc1ccc(Cl)cc1N1CC[C@H](NC(=O)N2CCOCC2)C1`, the “% Inhibition” value is on record as -11% and the Z score is recorded as 0.99.
For `Cc1ccc(NS(=O)(=O)c2cccc(-n3cnnn3)c2)c(C)c1O`, in that order: -4% and 0.65.
Take `CN1CCOc2ccc(NC(=O)c3ccncc3Br)cc21`: the “% Inhibition” value was -7% and the Z score was 1.43.
For `CC(C)N(CCS(=O)(=O)N1CCNCC1)C(=O)c1ccccc1`, in that order: -4% and 0.5.
As to `COc1cc2ccccc2cc1C(=O)Nc1nc(C)cc(C)n1`, the “% Inhibition” value is recorded as -18% and the Z score is reported as 2.42.
For the molecule `O=C(NCc1ccco1)c1nnc(Cc2c(F)cccc2Cl)o1`, the “% Inhibition” value is reported as -8% and the Z score was 1.32.
For `COCCC(=O)Nc1ccc2c(c1)C(C)(C)CC2(C)C`, in that order: 0% and -0.05.
As for `O=S1(=O)CCC[C@H](Cc2ccc3oc(C4CC4)nc3c2)C1`, the “% Inhibition” value is -15% and the Z score was 1.46.
Consider `COc1ccccc1[C@H]1CC(=O)Nc2c1cnn2Cc1ccccc1`, for which the “% Inhibition” value was determined as 0% and the Z score was determined as 0.02.
As to `COc1ccccc1[C@H](CNS(C)(=O)=O)OC`, the “% Inhibition” value was 0% and the Z score is -0.01.
Turning to `Cc1nc([C@H](C)N(C)S(=O)(=O)c2ccc(NS(=O)(=O)N(C)C)cc2)c(C)s1`, the “% Inhibition” value is listed as -4% and the Z score is given as 0.72.
On to `CCCOCCN1CCN(C(=O)c2cccc(-c3nc(C)n(C)n3)c2)CC1`, for which the “% Inhibition” value amounted to 0% and the Z score was -0.05.
Turning to `CC(NC(=O)NC(c1ccccc1Cl)C(C)C)C(=O)NCCF` (configuration not stated), the “% Inhibition” value worked out at 10% and the Z score was -1.71.
On to `Cn1cc(Cl)cc1C(=O)NCc1ccc2[nH]c(=O)[nH]c2c1`, for which the “% Inhibition” value is -9% and the Z score was determined as 1.72.
For `Cc1ccc(OCC(=O)N(C)[C@H](c2ccc(C)cc2)c2c[nH]c3ccccc23)cc1`, in that order: 13% and -1.72.
In the case of `Cc1cc(C)n2nc(C)c(C(=O)N3CCN(c4ncnc(C)c4C)CC3)c2n1`, the “% Inhibition” value is reported as -14% and the Z score amounted to 1.67.
As for `C(#CCN1CCOCC1)COCCCOC(c1ccccc1)c1ccccc1`, the “% Inhibition” value is recorded as -9% and the Z score is recorded as 1.65.
For `CCC(NCC(=O)NC1CCCCNC1=O)c1ccc(F)cc1F` (configuration not stated), in that order: 4% and -0.42.
`O=C(Cn1ccccc1=O)Nc1nc2ccccc2[nH]1`: the “% Inhibition” value was found to be 29% and the Z score is reported as -3.94.
For the molecule `Cc1c(-c2cccc(Cl)c2)nn2c1N=C(O)C[C@H]2C(=O)Nc1cccc(Cl)c1`, the “% Inhibition” value is on record as -6% and the Z score is reported as 0.73.
Regarding `Cc1nc(-c2ccc(N3CCOCC3)cc2)no1`, the “% Inhibition” value is recorded as -4% and the Z score is given as 0.5.
As to `CCCn1ccnc1-c1cn(C[C@H](C)N2CCN(C)CC2)nn1`, the “% Inhibition” value stood at 7% and the Z score was -0.99.
With `CCn1c(C)c(CN2CCC(C(=O)N[C@H]3CCCc4ccccc43)CC2)c2ccccc21`, the “% Inhibition” value stood at 2% and the Z score is listed as -0.32.
Consider `CC(C)c1n[nH]c([C@@H]2CN(Cc3ccn(C)c(=O)c3)CCO2)n1`, for which the “% Inhibition” value turned out to be 0% and the Z score was -0.07.
On to `CCn1ncc(NC(=O)Cc2ccccc2Cl)c(N2CCCCC2)c1=O`, for which the “% Inhibition” value is listed as -4% and the Z score is listed as 0.72.
As to `COc1cnccc1C(C)NC(=O)N1CCCC(c2ccc(F)c(F)c2)C1` (configuration not stated), the “% Inhibition” value is -15% and the Z score is given as 1.88.
Consider `CC1(C)NC(=O)N(CC2(c3ccc(F)cc3F)CC2)C1=O`, for which the “% Inhibition” value is -4% and the Z score is listed as 0.43.
For `CCN(CC)CCN(CCC(F)(F)F)CC(=O)Nc1ccc(C)cc1Cl`, in that order: -2% and 0.23.
`CCC1(CC)CCN(C(=O)c2nc(-c3cnn(C)c3)oc2C)CC1`: the “% Inhibition” value turned out to be 0% and the Z score was -0.06.
On to `COc1ccccc1CNC(=O)CC1CCN(C(=O)c2ccc3oc(-c4ccc(C)cc4)nc3c2)CC1`, for which the “% Inhibition” value is listed as -8% and the Z score is 0.9.
